Over roughly 110,000 compounds, “z-score” has its median near -0.1; the highest 2% begin near 2. Some of the results follow. Calls of active or inactive are those of the source.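 How the source made its calls: active means z-score in the third read window above 3 or below -3; inactive means the rest.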

For this experiment, the target named is Metabotropic glutamate receptor 8 (Rattus norvegicus) (UniProt P70579). Kind of experiment: mGluR8 Gi/Go-coupled signaling modulation – cell-based, rat, thallium flux, HTS, primary screen (AID 488969). To be noted: HEK293 rat mGluR8, GIRK (G protein-gated inwardly rectifying potassium channel) thallium flux, FluoZin2; at 10 µM; stronger effect = higher value; submaximal glutamate (EC20) added with thallium.
Sequence of UniProt P70579 (P70579 whole entry, looked up): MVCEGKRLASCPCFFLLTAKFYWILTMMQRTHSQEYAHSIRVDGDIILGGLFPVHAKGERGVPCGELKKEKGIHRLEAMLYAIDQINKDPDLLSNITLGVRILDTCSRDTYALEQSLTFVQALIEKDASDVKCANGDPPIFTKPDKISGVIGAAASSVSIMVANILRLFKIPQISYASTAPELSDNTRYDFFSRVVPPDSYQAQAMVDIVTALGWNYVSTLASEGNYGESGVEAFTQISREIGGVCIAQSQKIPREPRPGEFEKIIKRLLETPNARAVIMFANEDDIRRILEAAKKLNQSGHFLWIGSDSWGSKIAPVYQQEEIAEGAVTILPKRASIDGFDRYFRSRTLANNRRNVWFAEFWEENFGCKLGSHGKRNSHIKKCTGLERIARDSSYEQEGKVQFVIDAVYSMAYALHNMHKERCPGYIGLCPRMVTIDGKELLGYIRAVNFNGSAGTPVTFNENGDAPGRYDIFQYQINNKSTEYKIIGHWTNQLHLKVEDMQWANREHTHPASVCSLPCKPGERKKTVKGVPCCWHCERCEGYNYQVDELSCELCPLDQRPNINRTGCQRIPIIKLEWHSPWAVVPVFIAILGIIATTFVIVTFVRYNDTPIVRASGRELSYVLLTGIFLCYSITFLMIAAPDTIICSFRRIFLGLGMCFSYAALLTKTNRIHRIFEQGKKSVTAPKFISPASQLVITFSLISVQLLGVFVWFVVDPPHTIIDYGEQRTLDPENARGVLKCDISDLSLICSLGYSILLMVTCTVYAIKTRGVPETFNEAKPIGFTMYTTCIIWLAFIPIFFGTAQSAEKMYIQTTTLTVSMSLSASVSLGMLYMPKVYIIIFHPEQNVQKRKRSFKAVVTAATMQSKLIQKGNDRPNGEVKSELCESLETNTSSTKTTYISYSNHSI
In turn, `COc1nc(NCc2cccnc2)nc(OC)n1` returned a z-score of 0.145.

`COc1ccc(N2CCN(C(=O)CCCN3C(=O)c4cccc5cccc(c45)C3=O)CC2)cc1` registered a z-score of 0.249.

With `O=C(CSc1nnnn1-c1cccc2c1CCCC2)N1CCCCC1`, the z-score worked out at 0.0349.

Consider `CS(=O)(=O)N(CC(=O)N1CCN(Cc2ccc3c(c2)OCO3)CC1)c1ccc2c(c1)OCO2`, for which the z-score amounted to 0.57.

With `CCn1nc(C)c(C(=O)Nc2cc(Oc3cc(C)cc(C)c3)cc([N+](=O)[O-])c2)c1C`, the z-score was -0.185.

Take `CC(=O)Nc1cccc(-c2nc3ccccc3c(=O)o2)c1`: the z-score was -1.25.

Consider `COC(=O)C1=NN(c2cccc(C)c2)C2C(=O)N(c3ccccc3OC)C(=O)C12` (centres undefined), for which the z-score was -0.147.

In turn, `CC(=O)c1noc(C)c1C(=O)Nc1nccs1` registered a z-score of -0.35.

`CC(C)C(NS(=O)(=O)c1cccc2nsnc12)C(=O)NCc1ccc2c(c1)OCO2` (centres undefined): the z-score was -0.269.

`O=C(COC(=O)CCCN1C(=O)c2cccc3cccc(c23)C1=O)Nc1cccc(Br)c1` came in with a z-score of 0.0456.

The molecule `Cc1ccc(C(=O)NNC(=O)CSc2nc(N)cc(N)n2)cc1` gave a z-score of -0.067.

As for `O=C(Cn1cccc1C(=O)c1ccccc1)NCCN1CCCCCC1`, the z-score is -0.499.

Molecule `CCOC(=O)C1=C(CNCCc2ccc(Cl)cc2)NC(=O)NC1c1ccc2c(c1)OCO2` (centres undefined) had a z-score of 0.268.

`COC(=O)c1ccc(NC(=O)CN(c2ccc3c(c2)OCO3)S(C)(=O)=O)cc1` displayed a z-score of -0.375.

As to `CCOc1ccc(NC(=O)CCN2CCCCC2)cc1`, the z-score turned out to be 0.253.

`CCCCc1nc2ccccc2n1Cc1nnc2n1-c1ccccc1SC2`: the z-score is -0.163.

`CCC(C)Nc1nc(OC(C(F)(F)F)C(F)(F)F)nc(OC(C(F)(F)F)C(F)(F)F)n1` (centres undefined) yielded a z-score of 0.234.

Molecule `CC1(C)COC(c2cccn2Cc2ccc(F)cc2Cl)=N1` gave a z-score of 0.0294.

Molecule `CC1CC(C)(C)NC(=S)N1CC(=O)NCc1ccccc1Cl` (centres undefined) returned a z-score of -0.127.

Take `COc1ccc(CN2C(=O)c3ccccc3C(/C=N\OCc3ccc(C)cc3)C2=O)cc1` (centres undefined): the z-score amounted to 2.42.

Take `O=C(N/N=C/c1c[nH]c2ccc(Br)cc12)c1ccncc1`: the z-score is -0.431.

Molecule `COc1cc(OC)cc(C(=O)N2CCN(C(=O)c3ccc(OC)c(OC)c3)CC2)c1` yielded a z-score of -0.111.

In turn, `O=C(O)c1ccc(NCc2ccncc2)cc1` yielded a z-score of 0.229.

`Cc1cc(NC(=O)c2cccc(S(=O)(=O)N3CCCCCC3)c2)no1`: the z-score was 0.223.

Molecule `O=C(Cc1csc(N2CCOCC2)n1)N/N=C/c1ccc(Cl)cc1Cl` returned a z-score of -0.885.

In turn, `COc1cccc(Nc2nc(-c3sc(NC(=O)c4ccco4)nc3C)cs2)c1` came in with a z-score of 0.022.

The molecule `N#CC1=C(Nc2ccccc2)SC=C(c2ccc(F)cc2)N=C1N1CCOCC1` displayed a z-score of 0.177.

Consider `COc1cc2c(cc1NC(=O)CN1CCN(S(=O)(=O)c3ccccc3F)CC1)oc1ccccc12`, for which the z-score came out at 0.0078.

`CCn1c(-c2csc3c2CCC(C)C3)n[nH]c1=S` (centres undefined): the z-score worked out at 1.49.

In turn, `COc1ccc2sc(N3C(=O)C4CC=C(C)CC4C3=O)nc2c1` (centres undefined) came in with a z-score of -0.425.

As for `O=S(=O)(c1cc(-c2nnc(-c3ccc(Br)cc3)o2)ccc1Br)N1CCCCCC1`, the z-score is -0.167.

`COc1cc(/C=C2/SC(=O)N(Cc3ccccc3)C2=O)ccc1OCc1ccncc1`: the z-score was -0.0883.

As for `Cc1noc(C)c1COC(=O)c1ccc2c(c1)S(=O)(=O)c1ccccc1C2=O`, the z-score was -0.518.

As to `Cc1ccccc1-n1c(=O)cc(N2CCC3(CC2)OCCO3)[nH]c1=O`, the z-score was determined as 0.33.

For the molecule `Cc1onc(C(=O)N2CCN(c3ccccc3F)CC2)c1-c1ccccc1Cl`, the z-score was -0.226.

Molecule `Cc1ccc(NC(=O)C2CC(=O)N/C(=N/NC(=O)c3ccc(C)cc3)S2)cc1` (centres undefined) came in with a z-score of -0.457.

`COc1ccc(OCC(=O)OCC(=O)NCc2ccc(F)cc2)cc1` gave a z-score of -0.136.

In turn, `CCNc1nc(CC)nc2c1oc1ccccc12` registered a z-score of -0.918.

`CCN(c1ccc(C)c(C)c1)S(=O)(=O)c1c(C)[nH]c(=O)[nH]c1=O` showed a z-score of -0.525.

Regarding `COc1ccc(C)cc1NC(=S)N1CCN(c2ccccn2)CC1`, the z-score was -0.0513.

Consider `Cc1cc(C(=O)COC(=O)C2=NNC(=O)CC2)c(C)n1-c1ccccc1`, for which the z-score was -0.44.

As for `Cc1ccc(C(=O)Nc2nc(-c3ccccc3)c(-c3ccccc3)o2)cc1`, the z-score was active: 3.53.

For `CCCc1cc(=O)n2[nH]c(-c3cc(OC)c(OC)c(OC)c3)nc2n1`, the z-score is -0.544.

For `O=C(CSc1nnc(Cc2ccccc2)o1)NCCN1C(=O)CSC1=O`, the z-score was -0.181.

Regarding `CC(C)CC(=O)NC(=S)N(Cc1ccccc1)Cc1ccccc1`, the z-score is active: 8.66.

As to `CCOC(=O)c1c(C)nc(C)c(C(=O)OCC)c1-c1ccc(OC)cc1`, the z-score was 1.15.

`CCOC(=O)C1=C(C)N(c2ccccc2)C(=O)/C1=C\c1ccco1` came in with a z-score of -0.139.

`O=C(COC(=O)c1cccc(NS(=O)(=O)c2ccc(F)c(F)c2)c1)NC(=O)NC1CCCCC1` gave a z-score of -0.828.

`CSc1nc(C)cc(OCC#N)n1` returned a z-score of -0.071.

For `CCC(C)(C)n1nnnc1C(c1ccc(OC)c(OC)c1)N1CCN(c2ccc(F)cc2)CC1` (centres undefined), the z-score was 0.257.

The molecule `CCn1c(SCC(=O)Nc2ccc(N(C)C)cc2)nnc1-c1cccc(C)c1` had a z-score of -0.128.

`O=C(NCc1cccc(Cl)c1)NCc1cccc(Cl)c1`: the z-score amounted to 0.0207.

`COCCCNS(=O)(=O)c1ccc(S(=O)(=O)N2CCCC2)cc1` returned a z-score of 0.875.

`COc1ccc(S(=O)(=O)c2ccc(OC)c(OC)c2)cc1OC` yielded a z-score of -0.225.

With `CCOC(=O)Nc1ccc2c(c1)OCO2`, the z-score is -0.392.

`Cc1cc(C)c(C#N)c(Nc2ccc3c(c2)OCCO3)n1` showed a z-score of -0.503.

`CCCC(=O)Nc1ccc(OCC(=O)OC)cc1`: the z-score stood at 0.119.

In the case of `O=C(NCc1ccco1)c1cc(-c2ccc(F)cc2)on1`, the z-score amounted to 0.0819.

`Cc1ccc(-n2c(CNc3ccc(F)cc3)nnc2SCC(=O)N2CCOCC2)cc1`: the z-score is -0.0678.

In turn, `Cc1cc2oc(=O)cc(CSc3nnc(C)n3N)c2cc1C(C)C` displayed a z-score of -0.349.

For `Cc1cc(C)nc(NC2=NCC(=O)N2c2cccc(Cl)c2)n1`, the z-score was -0.0559.

In turn, `C=CCn1c(N)cc(=O)nc1SCC(=O)Nc1ccc2ccccc2c1` gave a z-score of -1.38.

`O=C(COc1ccc2ccccc2c1)NNC(=O)c1cccs1` yielded a z-score of 0.323.

The molecule `Cc1ccc(-c2c(=O)n(OCc3ccccn3)c3ccccc3[n+]2[O-])cc1` registered a z-score of -0.0797.

Regarding `CC(=O)Nc1nc2ccc(NC(=O)c3ccco3)cc2s1`, the z-score was -0.0812.

On to `Clc1cccc(NCc2nnc(SCc3ccc(Cl)cc3Cl)o2)c1`, for which the z-score is 0.273.

In turn, `CCOc1ccc2nc(NCCCNS(=O)(=O)c3ccc(F)cc3)c(C#N)cc2c1` gave a z-score of -0.286.

The molecule `CCOC(=O)c1c(C)c(C(=O)NCc2cccs2)c(C)n1C` came in with a z-score of -0.189.

For `Cn1ncc(N=Cc2ccccc2)c1C(N)=O`, the z-score was -0.121.

These data come from PubChem BioAssay AID488969 (Vanderbilt High Throughput Screening Facility, 2010).
